# Reference: PubChem BioAssay (Tox21)
# “And” between values parts separate entries of the source, which are not always exact repeats. Equal entries are not always repeated. The shares of active, inactive and inconclusive entries below differ from those in the screen. For some assays here: Potencies of inconclusive entries are doubtful fits and often do not repeat. More than one record can exist for a structure, and the calls need not agree. The source made the active and inactive calls. Unless noted, calls come from the whole dose curve; as a rule, active = well fitted curve in the direction sought with a large enough effect in the repeat runs; inconclusive = weak or mixed curves; inactive = no such curve, though single readings can be large; an effect the other way counts as inactive or inconclusive.
# Legend:
# [1] = qHTS assay to identify small molecule antagonists of the estrogen related receptor (ERR) signaling pathway from Tox21 library - cell viability counter screen (AID 1224834); note: nearly all actives have a fitted effect of over 30% in size; note: potency is the fitted concentration of half-maximal effect
# In short: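 CellTiter-Fluor fluorescence measured; ERR cells; 17.5 h compound incubation at 37 C; 30 min reagent step.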
# [2] = biological target: Luciferin 4-monooxygenase (Photinus pyralis) (UniProt P08659); experiment: qHTS assay to identify small molecule inhibitors of firefly luciferase (AID 1224835); note: potency is the fitted concentration of half-maximal effect; nearly all actives have a fitted effect of over 25% in size
# Chain of UniProt P08659 (P08659 whole entry, looked up): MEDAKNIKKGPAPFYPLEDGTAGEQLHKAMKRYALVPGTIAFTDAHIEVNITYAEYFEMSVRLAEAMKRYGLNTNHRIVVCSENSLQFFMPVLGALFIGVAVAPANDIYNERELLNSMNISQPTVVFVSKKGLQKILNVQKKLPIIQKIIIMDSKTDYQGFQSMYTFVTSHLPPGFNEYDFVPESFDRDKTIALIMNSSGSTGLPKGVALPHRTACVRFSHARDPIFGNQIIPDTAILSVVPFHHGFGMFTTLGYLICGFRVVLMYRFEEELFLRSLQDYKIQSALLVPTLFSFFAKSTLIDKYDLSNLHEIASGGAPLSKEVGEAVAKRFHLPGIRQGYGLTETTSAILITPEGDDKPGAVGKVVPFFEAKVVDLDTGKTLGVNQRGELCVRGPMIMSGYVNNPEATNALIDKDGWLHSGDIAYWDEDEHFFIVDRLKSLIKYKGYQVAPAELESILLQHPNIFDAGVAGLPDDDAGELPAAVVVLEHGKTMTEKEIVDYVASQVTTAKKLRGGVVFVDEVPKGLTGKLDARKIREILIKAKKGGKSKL
# In short: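 Quantitative HTS format; KM concentrations of both substrates. Purified P. pyralis FLuc activity quantified from luminescence images.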
# [3] = biological target: Thyrotropin receptor (Homo sapiens) (UniProt P16473); experiment: qHTS assay to identify small molecule agonists of the thyroid stimulating hormone receptor (TSHR) signaling pathway (AID 1224843; calls by dose curve; note: potency is the fitted concentration of half-maximal effect; nearly all actives have a fitted effect of over 45% in size); details: TSHR-HEK293 cells, cAMP HTRF, agonist mode, 30 min; activation: at 92.4 µM (top of the series) unless noted
# Chain of UniProt P16473 (P16473 whole entry, looked up): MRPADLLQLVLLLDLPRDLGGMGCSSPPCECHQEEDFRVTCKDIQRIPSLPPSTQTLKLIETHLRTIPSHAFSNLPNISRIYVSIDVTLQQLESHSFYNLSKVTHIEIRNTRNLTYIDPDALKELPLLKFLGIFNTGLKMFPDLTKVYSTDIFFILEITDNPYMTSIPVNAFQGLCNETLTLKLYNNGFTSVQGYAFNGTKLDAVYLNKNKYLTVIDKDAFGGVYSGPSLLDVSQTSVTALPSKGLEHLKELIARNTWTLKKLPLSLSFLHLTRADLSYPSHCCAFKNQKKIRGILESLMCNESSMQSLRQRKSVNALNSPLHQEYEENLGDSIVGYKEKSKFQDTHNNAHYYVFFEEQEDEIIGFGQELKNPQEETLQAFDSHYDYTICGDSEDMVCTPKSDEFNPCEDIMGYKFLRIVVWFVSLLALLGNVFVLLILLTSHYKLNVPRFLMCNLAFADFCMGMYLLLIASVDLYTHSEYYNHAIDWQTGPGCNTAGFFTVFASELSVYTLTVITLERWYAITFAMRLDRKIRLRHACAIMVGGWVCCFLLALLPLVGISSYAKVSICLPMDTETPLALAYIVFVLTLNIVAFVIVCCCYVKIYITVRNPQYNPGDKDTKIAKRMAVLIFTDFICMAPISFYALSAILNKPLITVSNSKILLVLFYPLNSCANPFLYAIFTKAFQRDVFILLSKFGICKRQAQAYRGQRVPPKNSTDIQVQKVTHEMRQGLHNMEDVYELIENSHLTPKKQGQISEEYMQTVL
# In short: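 Cell line HEK293 with TSHR; density 800/well. Exposure 30 min RT. Readout HTRF cAMP (cAMP-d2/anti-cAMP-cryptate), 1 h RT before reading.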
# [4] = qHTS assay to identify small molecule agonists of H2AX (AID 1224845; active = well fitted activation curve with a large enough effect in the signal ratio in the repeat runs, not every such curve was filed as active; inconclusive = weak or mixed curves; the % refers to the signal ratio; note: potency is the fitted concentration of half-maximal effect); details: CHO-K1 phospho-H2AX Ser139 HTRF, 3 h; series mostly up to 154 µM
# In short: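 Wild-type CHO-K1 cells plated overnight, then exposed 3 hr at 37C to compounds at 15 concentrations (0.76% DMSO). Lysed, then HTRF anti-pH2AX(S139)-cryptate/anti-H2AX-d2 detection after 24 hr at room temperature; emissions 665 and 620 nm.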
# [5] = qHTS RealTime-Glo MT Cell Viability Assay in HEK293 cells - 32 hour (AID 1224868); note: potency is the fitted concentration of half-maximal effect; nearly all actives have a fitted effect of over 50% in size
# In short: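 Tox21 10K qHTS, HEK293, 600 cells/well, RealTime-Glo reagent co-dispensed with cells; 5 h preincubation, compound by pintool, 37 C, luminescence at 0–40 h.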
# [6] = qHTS assay to identify small molecule agonists of the hypoxia (HIF-1) signaling pathway - cell viability counter screen (AID 1224844; calls by dose curve; note: potency is the fitted concentration of half-maximal effect; nearly all actives have a fitted effect of over 50% in size)
# In short: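 Multiplexed with the HRE beta-lactamase assay, this viability read used CellTiter-Glo luminescence (30 min, RT) on HRE-bla ME-180 cells treated 17 hrs with compounds in 0.5% dialyzed FBS medium.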
# [7] = qHTS assay to identify small molecule agonists of the hypoxia (HIF-1) signaling pathway (AID 1224846; active = well fitted activation curve with a large enough effect in the signal ratio in the repeat runs, not every such curve was filed as active; inconclusive = weak or mixed curves; the % refers to the signal ratio; note: potency is the fitted concentration of half-maximal effect; for activation: % is set by controls: 0 for no effect and ±100 for the full control effect); details: HRE-bla ME-180 cells, beta-lactamase ratio, 17 h; activation: at 76.8 µM (top of the series) unless noted
# In short: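 Hypoxia-pathway activation was scored as increased beta-lactamase from an HRE-controlled reporter in ME-180 cells; plated at 2,000 cells per well with 0.5% dialyzed FBS, they were exposed 17 hrs to compounds and then given CCF4-AM.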
# [8] = qHTS assay to identify small molecule agonists of H2AX - cell viability counter screen (AID 1224847; calls by dose curve; note: potency is the fitted concentration of half-maximal effect; nearly all actives have a fitted effect of over 30% in size)
# In short: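 Viability of CHO-K1 (wild type) cells after 3 hr compound exposure was measured by CellTiter-Glo luminescence.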
# [9] = qHTS RealTime-Glo MT Cell Viability Assay in HepG2 cells - 24 hour (AID 1224867); note: potency is the fitted concentration of half-maximal effect; nearly all actives have a fitted effect of over 50% in size
# In short: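 Cells + NanoLuc/prosubstrate dispensed (600 cells/well) → 5 h at 37 C/5% CO2 → compounds in DMSO transferred → 40 h incubation at 37 C, luminescence read at 0, 8, 16, 24, 32, 40 h.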
# [10] = qHTS assay to identify small molecule antagonists of the estrogen related receptor signaling pathway with the pleiotropic PPARgamma coactivator (PGC) from Tox21 10K library (AID 1224841; call rule not given here; note: potency is the fitted concentration of half-maximal effect; actives are mostly falling curves and most rising ones were filed inactive; nearly all actives have a fitted effect of over 50% in size)
# In short: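 Each well held 2,000 PGC/ERR cells, pre-incubated six hours (37 C, 5% CO2). Test substances in DMSO were added by pin tool and left for 18 h at 37 C before luciferase detection by One-Glo.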
# [11] = qHTS assay to identify small molecule antagonists of the estrogen related receptor (ERR) signaling pathway from Tox21 library (AID 1224848)
# In short: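 Screening used an ERR reporter line supplied by NTP, exposed for 18 h at 37 C to library compounds delivered in DMSO. Signal was luciferase luminescence developed with ONE-Glo at room temperature for 30 min.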
# [12] = qHTS assay to identify small molecule antagonists of the estrogen related receptor signaling pathway with the pleiotropic PPARgamma coactivator (PGC) from Tox21 10K library - cell viability counter screen (AID 1224840; active = well fitted cell-killing curve with a large enough effect in the repeat runs, not every such curve was filed as active; inconclusive = weak or mixed curves, or effect the other way; inactive = no such curve, though single readings can be large or run the other way; note: potency is the fitted concentration of half-maximal effect; nearly all actives have a fitted effect of over 40% in size)
# In short: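 Here the PGC/ERR cells serve as a cytotoxicity control: they are exposed to compounds for 17.5 hours at 37 C, and live-cell signal is quantified using CellTiter-Fluor fluorescence.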
# [13] = qHTS assay to identify small molecule agonists of the estrogen related receptor signaling pathway with the pleiotropic PPARgamma coactivator (PGC) from Tox21 10K library (AID 1224842); note: potency is the fitted concentration of half-maximal effect; nearly all actives have a fitted effect of over 15% in size
# In short: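 PGC/ERR reporter cells (NTP line) were seeded 2,000 per well, rested 6 h at 37 C/5% CO2, then pin-dosed with compounds in DMSO for 18 h at 37 C; luciferase read by One-Glo luminescence after 30 min at room temperature.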
# [14] = biological target: Nuclear receptor subfamily 1 group I member 3 (Homo sapiens) (UniProt Q14994); experiment: qHTS assay to identify small molecule antagonists of the constitutive androstane receptor (CAR) signaling pathway (AID 1224838);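 note: HepG2 cells stably expressing hCAR with CYP2B6 luciferase reporter stimulated by CITCO; potency is the fitted concentration of half-maximal effect; nearly all actives have a fitted effect of over 40% in size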
# Chain of UniProt Q14994 (Q14994 whole entry, looked up): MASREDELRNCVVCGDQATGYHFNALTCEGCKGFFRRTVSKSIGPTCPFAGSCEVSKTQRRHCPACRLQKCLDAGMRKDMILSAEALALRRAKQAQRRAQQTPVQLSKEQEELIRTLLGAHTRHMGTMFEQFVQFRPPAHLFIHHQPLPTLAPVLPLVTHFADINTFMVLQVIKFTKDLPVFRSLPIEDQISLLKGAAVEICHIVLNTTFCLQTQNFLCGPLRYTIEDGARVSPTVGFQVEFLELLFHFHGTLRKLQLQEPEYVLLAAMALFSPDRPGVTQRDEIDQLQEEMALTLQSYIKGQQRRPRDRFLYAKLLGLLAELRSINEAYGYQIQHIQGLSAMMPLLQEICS
# In short: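 Reporter luminescence was quantified after 24 h exposure of hCAR/CYP2B6-2.2kb double-stable HepG2 cells to compounds at 15 concentrations in the presence of 50 nM CITCO final.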
# [15] = biological target: Nuclear receptor subfamily 1 group I member 3 (Homo sapiens) (UniProt Q14994); experiment: qHTS assay to identify small molecule agonists of the constitutive androstane receptor (CAR) signaling pathway (AID 1224839);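 note: HepG2 cells stably carrying human CAR and a CYP2B6 luciferase reporter; % is set by controls: 0 for no effect and ±100 for the full control effect; nearly all actives have a fitted effect of over 15% in size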
# In short: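 Stable hCAR/CYP2B6-2.2kb HepG2 line in DMEM with 10% FBS; compounds (15 concentrations) and 0.75 uM PK11195 final, 24 h at 37 C/5% CO2, then ONE-Glo luminescence after 30 min.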
# [16] = A CellTox Green Cytotoxicity Assay to monitor cytotoxicity in HEK293 cells - 0 hour (AID 1224869)
# In short: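 Seeding of HEK293 cells together with cytotoxicity dye preceded a 5 h incubation at 37 C/5% CO2. Test compounds in DMSO were then added and fluorescence monitored across 40 h.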
# [17] = qHTS assay to identify small molecule agonists of the constitutive androstane receptor (CAR) signaling pathway - cell viability counter screen (AID 1224836); note: nearly all actives have a fitted effect of over 45% in size; note: potency is the fitted concentration of half-maximal effect
# In short: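 Fluorescence from CellTiter-Fluor indicates live cells after 23 h exposure. The human hepatoma line expresses hCAR and a CYP2B6-2.2kb reporter. Incubation medium contains 0.75 uM PK11195 (final).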
# Tags give direction and shape of the fitted curve or compound fluorescence and quenching.
smiles,measurement,setting,value
[Cl][Pt-2]([Cl])([Cl])[Cl],Potency,[1],inactive
same,Potency,[2],"inconclusive: 50.5 µM [inhibitor, partial curve]"
same,Potency,[3],"inconclusive: 21.8 µM [activator, full curve]"
same,Potency,[4],"inconclusive: 113 µM [falling, single point]"
same,Potency,[5],"inconclusive: 61.9 µM [rising, partial curve, poor fit]"
O=Cc1ccccc1C=O,Potency,[1],active: 54.5 µM and inactive
same,Potency,[2],"inconclusive: 71 µM [inhibitor, partial curve, poor fit]"
same,Potency,[3],active: 38.6 µM
same,Potency,[6],"inconclusive: 5.49 µM [cytotoxic, full curve]"
same,Potency,[7],"inconclusive: 15.5 µM [falling, partial curve]"
same,Potency,[8],"inconclusive: 71.3 µM [rising, partial curve]"
same,Potency,[9],"inconclusive: 21.9 µM [falling, partial curve]"
same,Potency,[5],"inconclusive: 34.7 µM [cytotoxic, partial curve]"
C[C@H](CCC(=O)O)[C@H]1CC[C@H]2[C@@H]3CC[C@@H]4C[C@H](O)CC[C@]4(C)[C@H]3CC[C@]12C,Potency,[1],"inconclusive: 77 µM [cytotoxic, partial curve, poor fit]"
same,Potency,[2],inconclusive: 89 µM [inhibitor]
same,Potency,[10],inconclusive: 68.6 µM
same,Potency,[6],active: 43.5 µM and active: 34.7 µM
same,Potency,[4],active: 89.4 µM and active: 56.6 µM
same,Potency,[8],active: 100 µM and active: 80 µM
same,Potency,[11],"inconclusive: 68.6 µM [inhibitor, single point]"
O=C(CC(=O)C(F)(F)F)c1ccccc1,Potency,[1],"inconclusive: 69.6 µM [cytotoxic, partial curve, poor fit]"
same,Potency,[2],"inconclusive: 64.2 µM [inhibitor, partial curve]"
same,Potency,[12],"inconclusive: 55.3 µM [cytotoxic, partial curve, poor fit]"
same,Potency,[13],active: 6.2 µM
same,Potency,[3],active: 17.5 µM
same,Potency,[6],"inconclusive: 19.8 µM [cytotoxic, partial curve]"
same,Potency,[4],inactive
same,Potency,[7],"inconclusive: 62.6 µM [falling, single point]"
C=CC(C)(CCC=C(C)C)OC(=O)C(C)C (stereo unspecified),Potency,[1],inactive
Oc1c(Cl)cc(Cl)cc1Sc1cc(Cl)cc(Cl)c1O,Potency,[1],"inconclusive: 31.1 µM [cytotoxic, partial curve] and inconclusive: 26.6 µM [cytotoxic, partial curve]"
same,Potency,[2],inconclusive: 89.6 µM [inhibitor]
same,Potency,[14],"inconclusive: 27.3 µM [inhibitor] and inconclusive: 33.5 µM [inhibitor, single point]"
same,Potency,[15],inactive
same,Potency,[12],"inconclusive: 22 µM [cytotoxic, full curve] [middle of 4 runs]"
same,Potency,[3],"inconclusive: 54.6 µM [inhibitor, partial curve]"
same,Potency,[6],inconclusive: 62.7 µM [cytotoxic]
same,Potency,[4],"inconclusive: 90 µM [activator] and inactive and inconclusive: 89.8 µM [activator, partial curve, poor fit]"
same,Potency,[5],"inconclusive: 22.2 µM [cytotoxic, full curve] and inconclusive: 26.8 µM [cytotoxic, single point]"
same,Potency,[16],active: 27.5 µM
COC(=O)c1nc(Cl)c(Cl)nc1N,Potency,[1],active: 11.9 µM
same,Potency,[17],inactive
same,Potency,[10],inconclusive: 33.5 µM
same,Potency,[3],inconclusive: 26.6 µM [activator]
same,Potency,[6],active: 13.4 µM
same,Potency,[4],inconclusive: 22 µM
same,Potency,[7],inconclusive: 13.4 µM
same,Potency,[8],"inconclusive: 24.7 µM [rising, full curve]"
same,Potency,[9],"inconclusive: 12 µM [falling, partial curve]"
CCN(CC)c1ccc2c(-c3ccc(S(=O)(=O)O)cc3S(=O)(=O)[O-])c3ccc(=[N+](CC)CC)cc-3oc2c1,Potency,[1],active: 22.4 µM
same,Potency,[17],active: 31.6 µM
same,Potency,[12],active: 28.2 µM
same,Potency,[10],active: 28.2 µM
same,Potency,[3],"inconclusive: 31.6 µM [rising, partial curve]"
same,Potency,[4],"inconclusive: 9.27 µM [fluorescent, full curve]"
same,Potency,[7],inactive
same,Potency,[8],active: 20.7 µM
